Reference: the supplement of paper PMC10338343
± gives the standard deviation. In all, about 5,500 sequences were measured (“pre-steady-state target cleavage rate”: median about 0.1, highest 2% from about 0.64 on). The list shows a part of the results, in another mix than the full data.

Each sequence was assayed on MIWI (PIWIL1) piRISC loaded with piRNA #2 (30 nt) (assay: pre-steady-state target cleavage rate (min^-1); MIWI and MILI are mouse PIWI proteins and EfPiwi is from a freshwater sponge; tags in brackets are library labels; higher = faster piRNA-guided slicing of the target). Conditions: guide: piRNA #2 5'p-UUAGGUAACCCAGUAGAUCCAGAGGAAUUC; auxiliary factor: 500 nM mouse GTSF1.
Method: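 Cleave-'n-Seq: a library of target RNAs (target site embedded in constant flanks, ACAGCATTCCGCGTTAGTGATATCCG... 5' flank; DNA-blocked outside the site) at 0.1 nM was incubated with 1 nM active mouse MILI or MIWI piRISC (synthetic 5'-monophosphorylated piRNA guide) with or without 500 nM mouse GTSF1 at 33 °C for 1 min to 16 h. Uncleaved targets were sequenced and normalised to non-target controls, and the pooled three trials were fitted to a burst-and-steady-state model to give the pre-steady-state cleavage rate (min^-1; k3 is constrained to at most 1e-4). Sequence is the target site only; target names encode pairing extent (gX:gY) and contiguous / 1-mismatch / 2-mismatch / bulge geometry. Fits with R² ≤ 0 are excluded.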

Sequence	pre-steady-state target cleavage rate
CUUAUCCUCUGGAACUACUGCGUUACCUAA	0.412 ± 0.038
CUUAAGGACUUGAUCUACUGGGUUACCUAA	0.0767 ± 0.028
CAAUUCCUCUCGAACUACUGGGUUACCUAA	0.57 ± 0.059
CUUAACCUCUGGAUCUACUCGGUUACCAAA	0.0543 ± 0.015
GAAUUUCUCUGGAUCUACUGGGUUACCUAA	0.134 ± 0.038
CAGUUCCUCUGGAUCUACUGGGUUACCUAA	0.382 ± 0.053
CAAUUCCUCUGGAUCAACUGGGUUACCUUA	0.438 ± 0.067
CUUAAGCUCUGGAUUUACUGGGUUACCUAA	0.167 ± 0.028
CUUUUCCUCAGGAUCUACUGGGAUACCUAA	0.381 ± 0.044
CUAUUCCUCUGGAUCCUACUGGGUUACCUAA	0.188 ± 0.039
CUUUUCCUCUGGAUCUAGUGGGUUACCAAA	0.0844 ± 0.011
CUAUUCCUCUGGAACUACUGGGUAACCUAA	0.178 ± 0.028
GUAUUCCUCUGGAUGUACUGGGUUACCUAA	0.0788 ± 0.031
CUUUUCCUCUGGAUCUACUGGGAUUACCUAA	0.153 ± 0.029
CAUUUCCUCUGGAUCUACUGCGUUACCUAA	0.519 ± 0.064
CUUAAGGAGUGGUUCUACUGGGUUAGCUAA	0.00727 ± 0.0032
CUUAAGGUCUGGAUCUACUCGGUUACCUUA	0.0171 ± 0.011
GAAUUCCUCUGGAUCUACUAGGUUACCUAA	0.293 ± 0.056
CUAUACCUCUGGAUCUACUGGGUUACCAAA	0.548 ± 0.067
CUAUUCCUCUGGAUCUACUGGGUAUGCUAA	0.0126 ± 0.0045
CUUAAGCUCUGGAUCUACUGGGUUGCCUAA	0.0696 ± 0.0075
CUUAAGGUCUGGAUCUACUGGCUUUCCUAA	0.0117 ± 0.0048
CUUAAGGAGACCUACUACUGUGUUACCUAA	0.00865 ± 0.0031
CAUUUCCUCUGGAUCUACUGGCUUACCUAA	0.106 ± 0.02
CAAUUCGUCUGGAUCUACUGGGUAACCUAA	0.187 ± 0.041

Sequence	pre-steady-state target cleavage rate
CUUAAGCACUGCAUCUACUGGGUUACCUAA	0.243 ± 0.022
CUUUUCCUCUGGAUCAUCUGGGUUACCUAA	0.259 ± 0.027
CUUAACCUCUGGAUCUACUGGGAAACCUAA	0.0935 ± 0.015
CUAUUCCACUGGAACUACUGGGUUACCUAA	0.275 ± 0.032
CUAUUCCUCUGCAUCUACUGCGUUACCUAA	0.654 ± 0.047
CUAUUCCUCUCGAUCUUCUGGGUUACCUAA	0.803 ± 0.07
CUUAACCUCUGGAUCUACUGGGUAAGCUAA	0.05 ± 0.0099
CUUAAGGAGUCGGAUCUACUGGGUUACCUAA	0.0344 ± 0.023
CUUAAGGAGACCUAGAUCUGGGAUACCUAA	< 0.0001
CUAUUCCUAUGGAUCUACUGGGUUACCUAA	0.499 ± 0.044
CUUAUCCUCUGGAUCUACUCGCUUACCUAA	0.00398 ± 0.0038
CUUAAGGUCUGGAUCUACUGUGUUACCUAA	0.312 ± 0.071
GAAUUCCUCUGGAUCAACUGGGUAACCUAA	0.137 ± 0.03
CUAUUCCUCUGGAUCUACACCGUUACCUAA	0.0916 ± 0.011
CUAUUCCUCUGGAUCUAGUGGGUUUCCUAA	0.0884 ± 0.017
CUUAACCUCUGGAUCUACUGGGUUACCCAA	0.0278 ± 0.0071
GAAUUCCUCACCAUCUACUGGGUUACCUAA	0.455 ± 0.051
GAAUACCUCUGGAUCUACUGGGUUACCAAA	0.344 ± 0.053
GAAUUCUUCUGGAUCUACUGGGUUACCUAA	0.38 ± 0.05
CUUAUCCUCUGGAUUACUGGGUUACCUAA	0.481 ± 0.04
CUUAACCUCUAGAUCUACUGGGUUACCUAA	0.472 ± 0.035
CUUUUCCUCUGGAUGUACUGGCUUACCUAA	0.0998 ± 0.021
CUUAAGGAGUGGAUCUCCUGGGUUACCUAA	0.0118 ± 0.005
GAAUUACCUCUGGAUCUACUGGGUUACCUAA	0.193 ± 0.054
CUUUUCCUCUGGAUGCUACUGGGUUACCUAA	0.396 ± 0.043

Sequence	pre-steady-state target cleavage rate
CUUUUCCUCUGGAUCUACUUGGUUACCUAA	0.00606 ± 0.0042
CUUAAGGACAGGAACUACUGGGUUACCUAA	0.0387 ± 0.032
GAAUUCCUCUCCUUCUACUGGGUUACCUAA	0.781 ± 0.06
CUAUUCCUCGGGAUCUACUGGGUUACCUAA	0.31 ± 0.076
CUUAAGGAGAGGAUCUACUGGGUUCACCUAA	0.00996 ± 0.004
CUUUUCCUCUGGAUCUACUGGGUAACCAAA	0.13 ± 0.034
CUUAACCUCUGGAUCUACUGGUUUACCUAA	0.153 ± 0.012
CUUUUCCUCUGGAUCUAAUGGGUUACCUAA	0.199 ± 0.025
CUUAUCCUCUGCAUCUACUGGGUAACCUAA	0.15 ± 0.017
CUUAAGCUCUGGAUGUACUGGGUUACCAAA	0.168 ± 0.02
CUUAUCCUCUGGAUGUACUGGGUUAGCUAA	0.216 ± 0.025
CUUUUCCUCAGGAUCUACUGGGUUACCUUA	0.515 ± 0.066
CAAAUCCUCUGCAUCUACUGGGUUACCUAA	0.473 ± 0.036
GAAUACCUCUGGAUCUACUGGGAUACCUAA	0.167 ± 0.019
CUAUUCCUCUGCAUCUACUGGGAUACCUAA	0.168 ± 0.023
CUAUAGCUCUGGAUCUACUGGGUUACCUAA	0.0962 ± 0.022
CUAUUCCGUCUGGAUCUACUGGGUUACCUAA	0.468 ± 0.049
GAAUUCCUCUGCGAUCUACUGGGUUACCUAA	0.552 ± 0.057
CAAUUCCUCUGGAUGUACUCGGUUACCUAA	0.103 ± 0.028
CUUUUGCACUGGAUCUACUGGGUUACCUAA	0.429 ± 0.048
CAAUUCCUGUGGAUCUACUGGGUUACCAAA	0.233 ± 0.056
CUUAAGGAGAGGAUCUACUGGGUUAGCCUAA	0.00467 ± 0.0037
CUUUUCCUCUGAAUCUACUGGGUUACCUAA	0.224 ± 0.036
CUUAUCCUCUGGAACUACUGGGUUACCUUA	0.254 ± 0.03
CUUAAGGUCAGGAUCUACUGGGUUACCUUA	0.0185 ± 0.0063

Sequence	pre-steady-state target cleavage rate
CCAUUCCUCUGGAUCUACUGGGUUACCUAA	0.512 ± 0.05
CAAUACCUCUGGAUGUACUGGGUUACCUAA	0.612 ± 0.043
CUUAUCCUCUGGAUCUACUGGGUAUGCUAA	0.0153 ± 0.005
CUAUUCGUCAGGAUCUACUGGGUUACCUAA	0.429 ± 0.062
CUUUUCCUCUGGAUCUACUGCGUUUCCUAA	0.119 ± 0.024
CUUAAGGAGUGGUAUCUACUGGGUUACCUAA	0.0169 ± 0.0045
CUAUUCCCUGGAUCUACUGGGUUACCUAA	0.538 ± 0.044
CUUAAGCUCUGGUUCUACUGCGUUACCUAA	0.372 ± 0.046
CUUAAGGUCUGGAUCUACUGGGUUAGCUUA	0.0462 ± 0.015
CUUAAGGACAGGAUCUACAGGGUUACCUAA	0.0125 ± 0.0063
CAAUUCCUCUGGAUCUAGUGGGAUACCUAA	0.107 ± 0.022
CUUAAGGAGUGGAUUCUACUGGGUUACCUAA	0.0115 ± 0.0028
CAAUUCCUCUGGAACUACUGGGUUACCUUA	0.387 ± 0.059
CUUUUCCUCUGGAUCUAGUGGGAUACCUAA	0.0842 ± 0.013
GAAUUCCUCUGGUUCUACAGGGUUACCUAA	0.472 ± 0.043
GAAUUCCUCUGGAUCAACUGGGUUACCAAA	0.294 ± 0.039
CUUAAGGUCUCGAUCUACUGGGUUUCCUAA	0.0622 ± 0.013
CUUAAGCUCUGGUUCUACUGGGUUACCUAA	0.267 ± 0.026
CUUUUCCUCUGGAUCUACACGGUUACCUAA	0.199 ± 0.022
CUUAAGCUCUGGAUGAACUGGGUUACCUAA	0.0941 ± 0.021
CUUAAGGAGUGGUUCUACUGGCUUACCUAA	0.00805 ± 0.0069
CUAUUCCUCUGGAACUACUCGGUUACCUAA	0.117 ± 0.019
CAAUUCCUCUGGAUCUACUGGGUUACCAA	0.501 ± 0.08
CUUAACCUCAGGAUCAACUGGGUUACCUAA	0.303 ± 0.033
GAAUUUCCUCUGGAUCUACUGGGUUACCUAA	0.194 ± 0.049

Sequence	pre-steady-state target cleavage rate
CUUAAGGAGAUGAUCUACUGGGUUACCUAA	0.0054 ± 0.0031
CUAUUCCUCUGGAUCUACGGGGUUACCUAA	0.0778 ± 0.0061
CUUAAGGUCUGGAUCUAGUGGGUUACCUAA	0.106 ± 0.011
CUAUUCGUCUGGUUCUACUGGGUUACCUAA	0.513 ± 0.042
CUUAAGGAGAGGAUCUACUGGGUUACGUAA	0.0626 ± 0.018
CUUAAGGACUGGAUGUACUGGCUUACCUAA	0.0448 ± 0.029
CUUAUCCUCUGGAUCUACAGGGUAACCUAA	0.128 ± 0.023
CUUUUCCUCUGGGUCUACUGGGUUACCUAA	0.365 ± 0.028
GAUUUCCUCUGGAUGUACUGGGUUACCUAA	0.227 ± 0.053
GAAUUCCUGUGGAUCUAGUGGGUUACCUAA	0.287 ± 0.022
CUUAAGGUCUGGAACUACUGGGUUACCUUA	0.0754 ± 0.017
CUUAAGGACUGGAUCUACGGGGUUACCUAA	0.0351 ± 0.015
CUUAAGGUCUGUGAUCUACUGGGUUACCUAA	0.151 ± 0.046
GAAUUCCUCAGGAUCUACUGGGUUACCUAA	0.483 ± 0.048
CAAUUCCUCAGGAACUACUGGGUUACCUAA	0.365 ± 0.042
CUUAACCUCUGGAUCUACUCGGUUAGCUAA	0.0154 ± 0.0085
CUUAACCUUGGAUCUACUGGGUUACCUAA	0.351 ± 0.022
CUUAAGGACUGGAUGUACUGGGUUUCCUAA	0.0279 ± 0.023
CUUUUCCUCUGGAUGAUCUGGGUUACCUAA	0.0123 ± 0.0037
CUUAAGGUCUGGAUCUACUCGGUUUCCUAA	0.00651 ± 0.0052
CUUAAGGAGUGGAUCUACCGGGUUACCUAA	0.00592 ± 0.0031
CUUAUCCUCUGGAUCUACUGGGUCACCUAA	0.322 ± 0.064
GAAUUCCUCUGUGAUCUACUGGGUUACCUAA	0.334 ± 0.038
CUAUUCGUCUGGAACUACUGGGUUACCUAA	0.447 ± 0.039
CAAUUCCUCUGGAUCUACUGGGUUACGCUAA	0.538 ± 0.063

Sequence	pre-steady-state target cleavage rate
CUUAACCUCUGGAUCAACUGGGUUAGCUAA	0.0963 ± 0.014
CUUAUCCACUGGAUCUACUGGCUUACCUAA	0.0551 ± 0.013
CUUAUCCUCUGGAUCUUCUGGGUUUCCUAA	0.111 ± 0.031
CAAUGCCUCUGGAUCUACUGGGUUACCUAA	0.309 ± 0.044
GAAUUCCUCUGGAUCUACAUGGGUUACCUAA	0.00473 ± 0.0037
CUUAAGGUCUGGAUCUACUGGGUAUCCUAA	0.0627 ± 0.017
CUUAAGGUCUCGAUCUACUGGCUUACCUAA	0.0846 ± 0.023
CUUUUCCUCUGGUUGUACUGGGUUACCUAA	0.531 ± 0.038
CUUAUCGUCUGGAUCUACUGGGAUACCUAA	0.285 ± 0.043
CUUAUCCUGCUGGAUCUACUGGGUUACCUAA	0.524 ± 0.072
CUUAAGGAGUGGAUCUACAGGGUUACGUAA	0.0493 ± 0.011
CUAUUCCUUUGGAUCUACUGGGUUACCUAA	0.56 ± 0.054
GAAUACCUCUGGUUCUACUGGGUUACCUAA	0.59 ± 0.052
CAAUUCCUCUGGAUCUUACUGGGUUACCUAA	0.0053 ± 0.0043
CUUAAGCUCUGGAUCUACUGGGAUUACCUAA	0.0208 ± 0.0063
CUAUUCCUCAGGAUCUACAGGGUUACCUAA	0.265 ± 0.027
CAAUUGCUCUGCAUCUACUGGGUUACCUAA	0.386 ± 0.055
CUUUUCCUCUGGAUCUACUGGGUUAUCCUAA	0.56 ± 0.07
CUUAACCUCUGGAUCAACUGGGUUACCUAA	0.221 ± 0.026
GAAUUGCUCUGGAACUACUGGGUUACCUAA	0.0998 ± 0.028
